According to US20260062705A1 (UNIVERSITY OF FLORIDA RESEARCH FOUNDATION, published 2026):

Target: PRKDC (human, UniProt P78527)
Assay: reciprocal co-immunoprecipitation and western blot, HEY and OVCAR8 cell lysates
Protocol: FIG. 6A is the results of immunoprecipitation with FAP and PRKDC antibodies. HEY and OVCAR8 cells were immunoprecipitated with either PRKDC or FAP antibody and the immunoprecipitates were subjected to western blot to detect FAP or PRKDC respectively. All blots derived from the same experiment and were processed in parallel.
Immunoprecipitation and mass spectrometry: Samples for co-immunoprecipitation and mass spectrometry were prepared using Thermo Scientific™ Pierce™ Co-Immunoprecipitation Kit (Cat #PI26149) following manufacturer's protocol. For mass spectrometry, samples were precipitated with anti-FAB polyclonal antibody (R&D systems, Cat #AF3715) and then sent to UF core for analysis on TSQ Altis™ Triple Quadrupole Mass Spectrometer (Thermo Fisher). For co-immunoprecipitation, samples were either precipitated with anti-FAB polyclonal antibody or goat anti-PRKDC polyclonal antibody (Abcam, Cat #ab168854).for 2 h and further with TrueBlot™ anti-Rabbit Ig Beads or TrueBlot™ anti-Goat Ig Beads ((Rockland, Limerick, PA). After several washes, beads were boiled and subjected to western blot analysis.

UniProt P78527, sequence (P78527 whole entry): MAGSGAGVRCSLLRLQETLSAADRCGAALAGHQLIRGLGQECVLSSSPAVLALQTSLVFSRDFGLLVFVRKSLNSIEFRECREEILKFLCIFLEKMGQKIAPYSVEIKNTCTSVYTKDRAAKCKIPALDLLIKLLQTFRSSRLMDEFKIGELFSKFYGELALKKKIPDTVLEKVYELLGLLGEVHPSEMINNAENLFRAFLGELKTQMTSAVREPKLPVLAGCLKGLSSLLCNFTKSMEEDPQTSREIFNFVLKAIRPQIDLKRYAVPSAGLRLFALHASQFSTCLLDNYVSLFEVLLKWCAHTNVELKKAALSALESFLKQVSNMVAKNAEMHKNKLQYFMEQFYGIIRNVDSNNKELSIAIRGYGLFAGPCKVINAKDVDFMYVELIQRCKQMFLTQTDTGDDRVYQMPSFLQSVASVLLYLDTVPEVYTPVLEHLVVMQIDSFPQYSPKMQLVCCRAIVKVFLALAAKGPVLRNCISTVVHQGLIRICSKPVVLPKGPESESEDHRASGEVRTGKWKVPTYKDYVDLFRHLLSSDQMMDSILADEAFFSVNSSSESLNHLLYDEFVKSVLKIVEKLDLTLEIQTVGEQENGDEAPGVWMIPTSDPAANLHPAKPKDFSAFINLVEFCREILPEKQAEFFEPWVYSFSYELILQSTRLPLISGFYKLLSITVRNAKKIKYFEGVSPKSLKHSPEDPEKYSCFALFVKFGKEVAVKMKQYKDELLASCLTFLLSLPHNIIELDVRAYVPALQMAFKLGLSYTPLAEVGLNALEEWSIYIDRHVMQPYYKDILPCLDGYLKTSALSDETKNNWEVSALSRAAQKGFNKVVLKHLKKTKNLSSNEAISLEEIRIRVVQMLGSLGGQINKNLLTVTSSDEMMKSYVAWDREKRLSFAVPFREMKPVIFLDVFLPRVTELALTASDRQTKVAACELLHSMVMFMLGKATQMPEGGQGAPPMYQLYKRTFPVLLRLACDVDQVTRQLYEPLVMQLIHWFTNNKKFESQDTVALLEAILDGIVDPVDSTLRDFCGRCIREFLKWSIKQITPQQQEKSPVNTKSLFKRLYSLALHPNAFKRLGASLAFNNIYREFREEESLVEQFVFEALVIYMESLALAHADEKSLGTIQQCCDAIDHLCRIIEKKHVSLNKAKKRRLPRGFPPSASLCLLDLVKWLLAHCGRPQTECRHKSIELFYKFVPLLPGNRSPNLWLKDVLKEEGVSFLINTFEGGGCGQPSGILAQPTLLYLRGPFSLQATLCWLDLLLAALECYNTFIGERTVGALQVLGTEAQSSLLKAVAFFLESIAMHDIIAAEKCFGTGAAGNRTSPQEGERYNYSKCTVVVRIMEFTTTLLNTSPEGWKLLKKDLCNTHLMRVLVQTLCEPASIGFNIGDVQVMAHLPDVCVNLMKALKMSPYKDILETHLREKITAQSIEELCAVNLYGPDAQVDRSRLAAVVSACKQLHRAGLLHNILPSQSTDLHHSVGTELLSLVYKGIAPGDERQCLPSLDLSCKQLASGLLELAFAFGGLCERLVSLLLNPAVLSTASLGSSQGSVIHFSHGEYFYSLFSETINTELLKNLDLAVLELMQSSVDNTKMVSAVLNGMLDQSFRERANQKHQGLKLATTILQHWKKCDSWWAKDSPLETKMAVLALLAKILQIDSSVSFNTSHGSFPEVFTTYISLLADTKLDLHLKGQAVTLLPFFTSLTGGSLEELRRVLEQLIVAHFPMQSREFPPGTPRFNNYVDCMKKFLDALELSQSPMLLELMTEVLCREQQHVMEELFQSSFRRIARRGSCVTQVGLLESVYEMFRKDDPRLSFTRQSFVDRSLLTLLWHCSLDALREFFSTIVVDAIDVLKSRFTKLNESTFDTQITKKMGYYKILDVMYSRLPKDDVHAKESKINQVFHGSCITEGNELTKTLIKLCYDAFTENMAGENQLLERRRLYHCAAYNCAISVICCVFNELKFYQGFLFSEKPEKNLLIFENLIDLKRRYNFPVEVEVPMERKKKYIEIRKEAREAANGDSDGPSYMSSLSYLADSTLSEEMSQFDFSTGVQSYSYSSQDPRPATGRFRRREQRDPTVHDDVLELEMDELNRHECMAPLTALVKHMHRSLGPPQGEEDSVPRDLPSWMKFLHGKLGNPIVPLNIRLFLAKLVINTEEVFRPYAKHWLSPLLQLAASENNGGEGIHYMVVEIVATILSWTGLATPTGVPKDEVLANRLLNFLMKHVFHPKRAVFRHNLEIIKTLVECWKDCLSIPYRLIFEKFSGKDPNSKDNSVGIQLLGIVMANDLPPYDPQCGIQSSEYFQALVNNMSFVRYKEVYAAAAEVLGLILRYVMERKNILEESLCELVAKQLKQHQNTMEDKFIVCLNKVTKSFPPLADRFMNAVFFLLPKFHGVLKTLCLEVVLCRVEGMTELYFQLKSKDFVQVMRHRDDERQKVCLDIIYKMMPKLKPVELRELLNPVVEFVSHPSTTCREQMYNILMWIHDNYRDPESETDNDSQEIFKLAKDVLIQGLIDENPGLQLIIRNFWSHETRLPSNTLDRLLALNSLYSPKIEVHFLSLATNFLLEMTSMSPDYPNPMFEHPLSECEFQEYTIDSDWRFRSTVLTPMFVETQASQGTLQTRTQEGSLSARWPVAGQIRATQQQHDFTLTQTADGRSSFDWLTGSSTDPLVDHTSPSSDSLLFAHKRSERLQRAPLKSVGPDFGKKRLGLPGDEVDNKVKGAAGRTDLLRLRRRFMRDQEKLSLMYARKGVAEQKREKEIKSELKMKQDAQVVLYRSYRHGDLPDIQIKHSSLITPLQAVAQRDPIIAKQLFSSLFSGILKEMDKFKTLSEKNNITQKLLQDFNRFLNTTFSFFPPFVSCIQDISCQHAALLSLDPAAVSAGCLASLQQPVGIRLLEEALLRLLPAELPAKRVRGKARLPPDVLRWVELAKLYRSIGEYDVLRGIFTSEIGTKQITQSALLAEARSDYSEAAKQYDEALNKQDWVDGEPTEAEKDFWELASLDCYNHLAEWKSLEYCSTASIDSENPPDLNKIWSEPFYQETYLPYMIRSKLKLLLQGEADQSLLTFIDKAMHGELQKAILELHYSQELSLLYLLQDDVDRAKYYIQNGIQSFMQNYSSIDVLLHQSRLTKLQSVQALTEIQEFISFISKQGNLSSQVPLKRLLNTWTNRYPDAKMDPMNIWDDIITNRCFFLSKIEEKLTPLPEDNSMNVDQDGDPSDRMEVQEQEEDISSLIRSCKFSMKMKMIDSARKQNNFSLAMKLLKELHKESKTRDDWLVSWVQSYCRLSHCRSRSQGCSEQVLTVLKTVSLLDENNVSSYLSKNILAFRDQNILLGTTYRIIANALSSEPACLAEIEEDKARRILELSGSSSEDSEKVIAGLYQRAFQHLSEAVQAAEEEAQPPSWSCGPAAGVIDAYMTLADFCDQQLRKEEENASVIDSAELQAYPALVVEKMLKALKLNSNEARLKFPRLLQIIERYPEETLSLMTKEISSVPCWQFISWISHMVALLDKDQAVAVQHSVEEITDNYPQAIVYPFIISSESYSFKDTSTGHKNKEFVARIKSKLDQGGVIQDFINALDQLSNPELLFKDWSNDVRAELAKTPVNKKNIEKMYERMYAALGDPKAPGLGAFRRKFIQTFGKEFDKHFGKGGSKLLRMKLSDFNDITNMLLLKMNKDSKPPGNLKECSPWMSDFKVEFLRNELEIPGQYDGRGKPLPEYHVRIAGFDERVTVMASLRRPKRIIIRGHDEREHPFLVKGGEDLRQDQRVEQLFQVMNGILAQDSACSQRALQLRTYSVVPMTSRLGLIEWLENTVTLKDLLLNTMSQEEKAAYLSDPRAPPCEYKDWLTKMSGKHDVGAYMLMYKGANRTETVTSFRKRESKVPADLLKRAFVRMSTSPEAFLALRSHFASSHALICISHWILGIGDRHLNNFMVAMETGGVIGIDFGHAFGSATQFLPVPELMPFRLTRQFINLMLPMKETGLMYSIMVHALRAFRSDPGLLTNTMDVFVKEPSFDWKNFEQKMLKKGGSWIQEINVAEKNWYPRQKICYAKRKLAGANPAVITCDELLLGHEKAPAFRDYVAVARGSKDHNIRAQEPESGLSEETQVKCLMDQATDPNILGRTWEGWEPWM

B1: fibroblast activation protein alpha (enzyme)
chain: not shown
notes: Endogenous FAP of HEY and OVCAR8 cells (immunoprecipitates, lipid raft isolates, stained cells); also called FAP
binding result: binds
